Results from the supplement of paper PMC11417369.
± gives the standard deviation of the averaged measurements. Some of the results follow.

Test system: PfAP2-I AP2 domain 3 (GST-tagged)
Assay: gcPBM binding intensity (ln(normalized median fluorescence intensity)); higher = stronger DNA binding
Summary of the method: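 Binding of GST-tagged P. falciparum DNA-binding domains, expressed in E. coli and used at about 25 μg on average, was carried out for 1 h in 1× PBS containing 1% milk, 0.2 mg/ml BSA, 0.5% salmon testes DNA and 0.03% Triton X-100. The target was an Agilent 4 × 180k array of primer-extended double-stranded 36-bp intergenic genomic probes plus negative controls, read with Alexa488 anti-GST antibody at 488 nm. Binding intensity is the highest Masliner-normalised natural-log median intensity across replicate spots of either probe orientation.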

Sequence	gcPBM binding intensity (ln)
CGTTATATAATAAAGGTGCATAGATATATCATTATA [GTGCAC_site9774]	10.2 ± 0.25
TATATAACATATATATGTACACATAATATCAGATTT [XGTACX_site1041]	7.77 ± 0.35
TATATATGTATATATTGTACTTTAAGACAAATATAT [XGTACX_site1052]	7.61 ± 0.47
AATATTTTTCAATTTCATGTGCATTCATTGAAGTTA [CACACA_negctrl_site1232]	8.76 ± 0.37
TTCTTAAATATATTCAACATACATAATATATAATCT [CACACA_negctrl_site1806]	7.63 ± 0.56
ATGTTTAAATTTTTCAGTACATATATTCTAGTAAAA [XGTACX_site1010]	7.83 ± 0.48
GATATATTACTTAAAATACACACCATGGAAAAGTTT [CACACA_site2606]	7.97 ± 0.61
GAATATGTTAACATTTGTACATAAAATTTTTTACAA [XGTACX_site2444]	7.83 ± 0.35
AATATATATATATATCCACACACATACATATATTAA [CACACA_site7907]	7.92 ± 0.51
ATGGTTTTTATTTTATGTACTTACTAAAATGAATAA [XGTACX_site4317]	7.97 ± 0.27
TACATAAAAATATATGCATGTTCTTATTTAATAAAA [TGCATGCA_site743]	7.57 ± 0.38
ATATGTAAAATATGGTGTACAATCAAATAAAAAAAA [XGTACX_site6270]	8.21 ± 0.3
ATTAATATATTTACCACACACCCATTTCGATTTTAT [CACACA_site3605]	8.16 ± 0.59
CATATAAAAGGACACACACACACATATATATATATA [CACACA_site4674]	9.27 ± 0.16
TATTTTATTTTTTGTTGTACATATATATTATATATA [XGTACX_site4513]	8.11 ± 0.38
TATACATAAAAAAATTTTACCAGGTTAATACAAATA [CACACA_negctrl_site1171]	7.67 ± 0.45
TTCCTTTGTTGTCGTTGTACTTATATGGTTATAATT [XGTACX_site3082]	8.29 ± 0.64
TACCTTATGTTATATACACACATATAACATAATATA [CACACA_site6741]	7.97 ± 0.59
ATATATATATATAGTAGTACTCTCTCTGTATATATA [XGTACX_site3754]	9.23 ± 0.39
ATTTAGAAAAATAAAACACACATATATCTGTAAATA [CACACA_site6119]	7.72 ± 0.38
AAAAAAATCTCCAGTGTGCACAATCACATAATATAT [GTGCAC_site9833]	10.24 ± 0.064
GAGATAAAATAAAACACACACATATATATATAGAAT [CACACA_site2197]	7.87 ± 0.78
TATAAGCTAAGTTGTTGTACAAAAAGGAAAAGTATA [XGTACX_site3741]	8.16 ± 0.38

Sequence	gcPBM binding intensity (ln)
TGTTACATAAAATGCACACTTTCAAATATGCTAATA [CACACA_site2925]	9.26 ± 0.26
AAATATAAATATACTCGTACATATATATATATATAT [XGTACX_site6940]	9.43 ± 0.69
TATACGTATTTTATATGTACACATATACATATTTAT [XGTACX_site5301]	7.88 ± 0.2
TTTTCTTTTAAGTTTGTTTTACACTTTTTATTTTGA [CACACA_negctrl_site1581]	7.51 ± 0.64
ACTATATTTCATAACAGTACATATTCCTGAAACATC [XGTACX_site4924]	8.2 ± 0.43
CATGCTTATATGTGCACACACAAAAGAAAAGAAAAA [CACACA_site1655]	10.2 ± 0.49
ACAATATAAAAAAATTGTACATAATATATAATATTA [XGTACX_site1040]	7.47 ± 0.35
ATTATTTTATTTATTGGTACGTAATTGTAGATTTCT [XGTACX_site3697]	7.92 ± 0.49
TGGAGATAAAATAAAACACACACATATATATATATA [CACACA_site8683]	9.23 ± 0.32
ATACATTCTTATTACTGTACAGGGTTAATTATTTGT [XGTACX_site948]	7.85 ± 0.65
GCAAAAACAAACGTCACACATACAAAGGCCGTGTAA [CACACA_site6043]	7.67 ± 0.59
ATGTTGAGTATATATACACACATACAGATATATATA [CACACA_site4967]	7.82 ± 0.63
TCCACACAATTTATAACATGCAAAAAGGCAATAATA [TGCATGCA_site773]	8.04 ± 0.61
TAGGTATATAAATAATGTACATATAAACTATATAGA [XGTACX_site2597]	7.79 ± 0.38
ATTTTTTTGGAATTCACACACAAAAAAAAAAATAAA [CACACA_site2081]	7.75 ± 0.4
AATTAGACATAATATACACACATATATTATATATAT [CACACA_site2691]	8.43 ± 0.47
TTCAAAAGATATATCGTGCACATATATATGATGAAA	11.155 ± 0.007
CAAAATATATTGAATTGTACATAAAAATAAAAATTA [XGTACX_site4193]	7.72 ± 0.53
TTTATTTTATCATTTGCACACGCACGCCCACATAAA [CACACA_site353]	9.65 ± 0.042
AGCAGTCAGCAGGACAGTACACAGTAGCCAGTAACT [XGTACX_site1999]	7.44 ± 0.81
TTTTTAGGAAAGGCGGCACACATTTATATATTTATT [CACACA_site3672]	7.58 ± 0.75
ATAAAATAAATATAACCACACACGAAAGAGAGAGAA [CACACA_site9075]	8.18 ± 0.75
